In PubChem BioAssay AID1452 (National Center for Advancing Translational Sciences (NCATS), 2008):
Hit rate of the full screen: of about 150,000 compounds, about 190 (0.13%) were called active. This list was built around the results that the source calls inconclusive (neither active nor inactive); the mix of calls is not that of the screen. Calls follow the shape of the dose curve; as a rule, active = well fitted inhibition curve with a large enough effect; inconclusive = small, poorly fitted or top-dose-only effect; inactive = flat fitted curve, though single readings scatter. Where the call is inconclusive, the potency comes from a doubtful curve fit.

These compounds were tested against Polyunsaturated fatty acid lipoxygenase ALOX12 (Homo sapiens) (UniProt P18054) (assay: qHTS Assay for Inhibitors of 12-hLO (12-human lipoxygenase)). Conditions: purified 12-hLO, xylenol orange hydroperoxide absorbance; series mostly up to 57.1 µM.
Chain of UniProt P18054 (P18054 whole entry, looked up): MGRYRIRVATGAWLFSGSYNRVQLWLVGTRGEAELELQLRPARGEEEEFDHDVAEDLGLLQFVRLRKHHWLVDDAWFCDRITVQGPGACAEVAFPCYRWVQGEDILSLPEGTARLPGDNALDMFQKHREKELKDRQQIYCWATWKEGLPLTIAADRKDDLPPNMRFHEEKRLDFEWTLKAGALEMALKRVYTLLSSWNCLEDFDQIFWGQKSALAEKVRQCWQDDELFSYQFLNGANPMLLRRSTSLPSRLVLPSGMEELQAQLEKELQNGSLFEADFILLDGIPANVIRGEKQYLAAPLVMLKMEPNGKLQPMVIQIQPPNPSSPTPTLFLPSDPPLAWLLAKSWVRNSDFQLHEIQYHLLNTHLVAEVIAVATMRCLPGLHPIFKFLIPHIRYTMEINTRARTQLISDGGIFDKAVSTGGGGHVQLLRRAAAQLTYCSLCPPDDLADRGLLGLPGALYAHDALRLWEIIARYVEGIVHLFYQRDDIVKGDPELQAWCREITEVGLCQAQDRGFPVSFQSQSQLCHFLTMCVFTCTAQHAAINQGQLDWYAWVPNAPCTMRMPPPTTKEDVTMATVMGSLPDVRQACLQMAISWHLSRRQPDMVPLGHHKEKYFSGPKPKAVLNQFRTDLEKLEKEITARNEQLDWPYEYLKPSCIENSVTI
In short: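 Hydroperoxide output read as Fe(III)-xylenol orange absorbance, 573-to-405 nm ratio, after 30 min reaction with 40 uM arachidonic acid. Enzyme: 150 nM purified human 12hLO, 15 min compound preincubation; 25 mM Hepes pH 7.0, room temperature.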
Also: nearly all actives have a fitted effect of over 55% in size.
Potency is read from the fitted curve at half-maximal effect; tags tell the direction and shape of the fitted curve.

Cc1ccc(C(=O)/C=C/c2c[nH]c3ccccc23)cc1 was tested. Which Potency did it give?
Its Potency is inconclusive: 25.1 µM [inhibitor, partial curve].

How did the Potency turn out when COc1ccc(-c2nn(-c3ccccc3)cc2/C=N/NC(=S)NC(C)C)cc1OC was run?
The Potency was inconclusive: 35.5 µM [inhibitor, single point].

Fc1ccc(CSc2ncnc3scc(-c4ccccc4)c23)cc1 was tested. Which Potency did it give?
Its Potency is “inactive”.

For COc1cc(S(=O)(=O)N2CCCCC2)ccc1NC(=O)c1ccccc1Cl, which Potency is on record?
The Potency was “inactive”.

For O=S(=O)(c1ccc2nc(-c3ccco3)c(-c3ccco3)nc2c1)N1CCOCC1, which Potency is on record?
Its Potency is inconclusive: 15.8 µM [inhibitor, partial curve].

Cn1c(SCC(=O)N2CCCc3ccccc32)nnc1-c1cccs1 was tested. Which Potency did it give?
Its Potency is “inactive”.

CN(C)c1ccc(N=Cc2ccco2)cc1 was tested. Which Potency did it give?
Its Potency is inconclusive: 2 µM [inhibitor, full curve, poor fit].

With CCc1ccc(C(=O)NC(=S)Nc2ccc3c(c2)OCCO3)cc1 as the compound, how does the Potency read?
The Potency was active: 14.1 µM.

Which Potency does the source give for COc1cc(S(=O)(=O)N(Cc2ccc(C)cc2)C2CCCCC2)ccc1-n1cnnn1 here?
Its Potency is “inactive”.

Cc1ccc(SCCNC(=S)Nc2cc(C)ccc2C)cc1 was tested. Which Potency did it give?
Its Potency is inconclusive: 31.6 µM [inhibitor, single point].

COc1cc2cc3c4c(cc(OC)c(OC)c4c2cc1OC)CCN3C was tested. Which Potency did it give?
The Potency was inconclusive: 35.5 µM [inhibitor, single point].

How did the Potency turn out when O=C(c1cc2c(s1)CCCC2)N1CCN(Cc2ccc3c(c2)OCO3)CC1 was run?
Its Potency is “inactive”.

Which Potency does the source give for CNC(=S)N/N=C(\C)c1ccc2c(c1)OCCO2 here?
Its Potency is inconclusive: 39.8 µM [inhibitor, single point].

Which Potency does the source give for Cc1nc(N)sc1N=Nc1ccc(F)cc1 here?
The Potency was inconclusive: 25.1 µM [inhibitor, single point].

With COc1ccc(C2NC(C(=O)O)Cc3c2[nH]c2ccccc32)cc1OC (stereo not given) as the compound, how does the Potency read?
The Potency was inconclusive: 39.8 µM [inhibitor, single point].

How did the Potency turn out when Cc1cccnc1Nc1nc(-c2ccc(O)c(O)c2)cs1 was run?
Its Potency is inconclusive: 15.8 µM [inhibitor, partial curve].

For O=C1CCCC2=C1C(c1ccc(Br)cc1)c1c([nH]c(=S)[nH]c1=O)N2 (stereo not given), which Potency is on record?
The Potency was inconclusive: 10 µM [inhibitor, partial curve].

How did the Potency turn out when CCCOC(=O)c1ccc(Oc2c(-c3ccc(O)cc3O)n[nH]c2C)cc1 was run?
The Potency was inconclusive: 10 µM [inhibitor, partial curve].

For CCOc1ccc(OCCSc2nnnn2C2CCCCC2)cc1, which Potency is on record?
Its Potency is “inactive”.

How did the Potency turn out when CCc1nnc(NS(=O)(=O)c2ccc(NC(=S)NC(=O)c3ccccc3)cc2)s1 was run?
The Potency was inconclusive: 20 µM [inhibitor, single point].

With NS(=O)(=O)c1ccc(NC(=O)N2c3ccccc3Sc3ccccc32)cc1 as the compound, how does the Potency read?
The Potency was active: 15.8 µM.

For COc1ccccc1NC(=S)NCCc1c[nH]c2ccccc12, which Potency is on record?
The Potency was inconclusive: 17.8 µM [inhibitor, partial curve].

COc1ccc(-c2n[nH]c(C(F)(F)F)c2-c2cc3ccccc3o2)c(O)c1 was tested. Which Potency did it give?
Its Potency is inconclusive: 28.2 µM [inhibitor, partial curve].

For Cc1cc2c(cc1C)N(C(=O)CN1C(=O)c3ccccc3C1=O)C(C)(C)c1ssc(=S)c1-2, which Potency is on record?
The Potency was inconclusive: 28.2 µM [inhibitor, partial curve].

For COc1ccc(Oc2c(-c3ccc(O)cc3O)n[nH]c2C)cc1, which Potency is on record?
The Potency was inconclusive: 14.1 µM [inhibitor, partial curve].

How did the Potency turn out when CCn1c(CSc2ncccn2)nnc1SCC(=O)N1CCc2ccccc21 was run?
Its Potency is “inactive”.

For CNC(=S)N1N=C(c2ccc(Br)cc2)CC1c1ccc(OC)cc1 (stereo not given), which Potency is on record?
Its Potency is inconclusive: 11.2 µM [inhibitor, partial curve].

How did the Potency turn out when COc1ccccc1CNC(=O)C1CC(=O)N(C2CCCC2)C1 (stereo not given) was run?
The Potency was “inactive”.

For O=[N+]([O-])c1cc(C(F)(F)F)ccc1NCCCCNS(=O)(=O)c1ccc(Cl)cc1, which Potency is on record?
The Potency was “inactive”.

CCNC(=O)/C(=C/c1ccco1)NC(=O)/C=C/c1ccccc1 was tested. Which Potency did it give?
The Potency was inconclusive: 22.4 µM [inhibitor, partial curve].

With Cc1nc2cnc(N(C)C)nc2n(C)c1=O as the compound, how does the Potency read?
The Potency was “inactive”.

How did the Potency turn out when C=CCc1cc(C)ccc1OCC(O)CN1CCN(c2ccccc2)CC1 (stereo not given) was run?
The Potency was inconclusive: 39.8 µM [inhibitor, single point].

CCCCc1nc2ccccc2c(N)c1CCC (tested in a mixture with another compound) was tested. Which Potency did it give?
The Potency was inconclusive: 39.8 µM [inhibitor, single point].

Which Potency does the source give for COc1ccc(/C=C2\CCCC3C2=NC(=S)NC3c2ccc(OC)cc2)cc1 (stereo not given) here?
The Potency was active: 14.1 µM.

For O=C(O)c1c(Cl)c(Cl)c(Cl)c(Cl)c1-c1c2cc(I)c(=O)c(I)c-2oc2c(I)c(O)c(I)cc12, which Potency is on record?
The Potency was inconclusive: 14.1 µM [inhibitor, partial curve].

For CCOC(=O)c1cccc(NC(=O)CN(c2ccc(C)cc2)S(=O)(=O)c2c(C)noc2C)c1, which Potency is on record?
Its Potency is inconclusive: 35.5 µM [inhibitor, partial curve].

COc1ccc2cc(CN(CC3CCCO3)S(=O)(=O)c3ccc(C(C)=O)cc3)c(=O)[nH]c2c1 (stereo not given) was tested. Which Potency did it give?
The Potency was “inactive”.

Which Potency does the source give for Cn1cccc1/C=N/n1c(-c2ccc(Cl)cc2Cl)n[nH]c1=S here?
Its Potency is “inactive”.

How did the Potency turn out when CCc1ccc(CC2S/C(=C(\C#N)C(C)=O)NC2=O)cc1 (stereo not given) was run?
Its Potency is inconclusive: 20 µM [inhibitor, partial curve].

How did the Potency turn out when COc1ccc(-n2c(Cc3cccn3C)nnc2SCC(=O)Nc2ccc(C(C)=O)cc2)cc1 was run?
Its Potency is “inactive”.

How did the Potency turn out when Cc1ccccc1NC(=S)NCc1ccc2c(c1)OCO2 was run?
The Potency was inconclusive: 31.6 µM [inhibitor, partial curve].

With Cc1cc(SCC(=O)N/N=C/c2ccc(O)c(O)c2)c(C)cc1Br as the compound, how does the Potency read?
The Potency was inconclusive: 7.08 µM [inhibitor, partial curve, poor fit].

How did the Potency turn out when CCc1ccccc1N1CSC2=C(C#N)C(c3cc(OC)c(OC)cc3OC)CC(=O)N2C1 (stereo not given) was run?
The Potency was inconclusive: 12.6 µM [inhibitor, partial curve].

How did the Potency turn out when COc1cc(/C=N/NC(=O)C(=O)/C=C2\NC3(CCCC3)Cc3ccccc32)ccc1O was run?
The Potency was “inactive”.

For COc1ccc(C(=O)Nc2cc(C(=O)c3ccccc3)c(C)oc2=O)cc1, which Potency is on record?
The Potency was inconclusive: 28.2 µM [inhibitor, partial curve].

N#C/C(=C\Nc1ccc2c(c1)OCCO2)c1nc2ccccc2[nH]1 was tested. Which Potency did it give?
Its Potency is inconclusive: 22.4 µM [inhibitor, partial curve].

For COc1ccc(NS(=O)(=O)c2ccc(NC(=S)NC(=O)c3ccc(Br)cc3)cc2)nn1, which Potency is on record?
Its Potency is inconclusive: 10 µM [inhibitor, partial curve].

O=S(=O)(c1ccc2ccccc2c1)N1CCN(C(=S)Nc2ccc(F)cc2)CC1 was tested. Which Potency did it give?
The Potency was inconclusive: 39.8 µM [inhibitor, single point].

Which Potency does the source give for O=C(CC(c1ccccc1)c1cc(Br)ccc1O)NCc1ccco1 (stereo not given) here?
Its Potency is “inactive”.

How did the Potency turn out when CCOc1ccc(OCCCC(=O)NC2=NCCS2)cc1 was run?
The Potency was inconclusive: 8.91 µM [inhibitor, single point].

With CN1CCCC(C(=O)C(C#N)c2ccccc2)C1 (stereo not given) as the compound, how does the Potency read?
Its Potency is “inactive”.

With O=S(=O)(c1ccc(Cl)s1)N1CCN(C/C=C/c2ccccc2)CC1 as the compound, how does the Potency read?
The Potency was inconclusive: 8.91 µM [inhibitor, partial curve].

Which Potency does the source give for COc1ccc(C(=O)Cn2nnc(-c3ccccc3NC(=O)C3CCCCC3)n2)cc1 here?
Its Potency is “inactive”.

For C/C(CC(C)(C)C1CCCCC1)=N\NC(N)=S, which Potency is on record?
The Potency was inconclusive: 28.2 µM [inhibitor, single point].

Which Potency does the source give for CC(=O)C1=C(c2ccccc2)NC(=S)NC1c1cc(Cl)c(OC(C)C)c(Cl)c1 (stereo not given) here?
Its Potency is inconclusive: 20 µM [inhibitor, partial curve].

How did the Potency turn out when C/C(=C\C(=O)c1ccc(Br)cc1)N1CCCCC1 was run?
Its Potency is inconclusive: 11.2 µM [inhibitor, partial curve].

For Cc1cc(O)c(C=O)c2c1C(=O)Oc1c(COC(=O)/C=C/C(=O)O)c(O)c(C(=O)O)c(C)c1O2, which Potency is on record?
Its Potency is inconclusive: 15.8 µM [inhibitor, partial curve].

Which Potency does the source give for O=C(Nc1cccs1)Nc1ccc(Br)cc1F here?
Its Potency is inconclusive: 8.91 µM [inhibitor, single point].

How did the Potency turn out when COc1ccc(NC(=O)c2cc(-c3ccc(C)o3)nc3ccccc23)cc1OC was run?
The Potency was inconclusive: 10 µM [inhibitor, single point].

For O=C(c1ccc(Cl)cc1)c1oc2ccccc2c1CS(=O)c1ccccc1 (stereo not given), which Potency is on record?
Its Potency is inconclusive: 14.1 µM [inhibitor, partial curve].

For CCCn1c(=O)c(C(=O)NCc2ccc(OC)c(OC)c2)c(O)c2ccccc21, which Potency is on record?
The Potency was inconclusive: 2 µM [inhibitor, full curve].

For CN1CCc2c(sc3c2C(=O)NC(c2cn(Cc4ccccc4)c4ccccc24)N3)C1 (stereo not given), which Potency is on record?
Its Potency is “inactive”.

Which Potency does the source give for CC1=CC(C)C2(CO)COC(c3ccccc3O)C1C2C (stereo not given) here?
The Potency was inconclusive: 39.8 µM [inhibitor, single point].

Which Potency does the source give for Nc1c(C(=O)NCc2ccco2)c2nc3ccccc3nc2n1CCc1ccc(F)cc1 here?
The Potency was inconclusive: 39.8 µM [inhibitor, single point].

How did the Potency turn out when Cc1cccc(NC(=S)/N=C(\N)Nc2nc(C)c3ccccc3n2)c1 was run?
The Potency was active: 7.94 µM.

How did the Potency turn out when N#C[C@@H](Cc1ccc(O)c(O)c1)C(=O)N1CCc2ccccc21 was run?
Its Potency is inconclusive: 7.94 µM [inhibitor, full curve].

For CCOC(=O)c1ccc(NC(=S)NC2CCCC2)cc1, which Potency is on record?
Its Potency is “inactive”.

How did the Potency turn out when Cc1ccccc1N/N=C1\CCCNC1=O was run?
The Potency was inconclusive: 3.55 µM [inhibitor, partial curve].

Cc1ccc(C2C3=C(CC(C)(C)CC3=O)N=C3c4ccccc4C(=O)C32)cc1 (stereo not given) was tested. Which Potency did it give?
Its Potency is “inactive”.

With COC(=O)C1(C(=O)OC)CC2=CCC3C(=O)N(c4ccccc4)C(=O)C3C2Cc2ccccc2[C@@H]1C[N+](=O)[O-] (stereo not given in full) as the compound, how does the Potency read?
Its Potency is “inactive”.
